Laboratory results: the supplement of paper PMC8728848
Some of the results follow.

Experiments:
Assay in all cases: glycan array binding signal (z-score within array); higher = stronger binding
Details in all cases: glycan notation: IUPAC condensed, linker removed
[1] = target: Gal(a1-3)Gal(b1-3)[Fuc(a1-4)]GlcNAc(b1-2)Man(a1-3)[Gal(a1-3)Gal(b1-3)[Fuc(a1-4)]GlcNAc(b1-2)Man(a1-6)]Man(b1-4)GlcNAc(b1-4)GlcNAc
Method in brief: (§1)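 Columns mapping to the same glycan were averaged after glycan names were converted to IUPAC-condensed notation. The data come from 3228 arrays in the Consortium for Functional Glycomics database, limited to those with an available protein sequence. Binding is reported as a within-array Z-score averaged across arrays of one protein sequence and across linkers.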

[2] = target: Gal(a1-3)Gal(b1-4)Glc
Method in brief: as §1

[3] = target: Gal(a1-3)Gal(b1-4)GlcNAc
Method in brief: as §1

[4] = target: Gal(a1-3)Gal(b1-4)GlcNAc(b1-2)Man
Method in brief: as §1

[5] = target: Gal(a1-3)Gal(b1-4)GlcNAc(b1-2)Man(a1-3)[Gal(a1-3)Gal(b1-4)GlcNAc(b1-2)Man(a1-6)]Man(b1-4)GlcNAc(b1-4)GlcNAc
Method in brief: as §1

[6] = target: Gal(a1-3)Gal(b1-4)GlcNAc(b1-3)GalNAc
Method in brief: as §1

[7] = target: Gal(a1-3)Gal(b1-4)GlcNAc(b1-6)GalNAc
Method in brief: as §1

[8] = target: Gal(a1-3)Gal(b1-4)[Fuc(a1-3)]GlcNAc
Method in brief: as §1

[9] = target: Gal(a1-3)Gal(b1-4)[Fuc(a1-3)]GlcNAc(b1-2)Man(a1-3)[Gal(a1-3)Gal(b1-4)[Fuc(a1-3)]GlcNAc(b1-2)Man(a1-6)]Man(b1-4)GlcNAc(b1-4)GlcNAc
Method in brief: as §1

[10] = target: Gal(a1-3)GalNAc
Method in brief: as §1

[11] = target: Gal(a1-3)[Gal(a1-4)]Gal(b1-4)GlcNAc
Method in brief: as §1

[12] = target: Gal(a1-4)Gal(b1-3)GlcNAc(b1-2)Man(a1-3)[Gal(a1-4)Gal(b1-3)GlcNAc(b1-2)Man(a1-6)]Man(b1-4)GlcNAc(b1-4)GlcNAc
Method in brief: as §1

[13] = target: Gal(a1-4)Gal(b1-4)Glc
Method in brief: as §1

[14] = target: Gal(a1-4)Gal(b1-4)GlcNAc
Method in brief: as §1

[15] = target: Gal(a1-4)Gal(b1-4)GlcNAc(b1-2)Man(a1-3)[Gal(a1-4)Gal(b1-4)GlcNAc(b1-2)Man(a1-6)]Man(b1-4)GlcNAc(b1-4)GlcNAc
Method in brief: as §1

[16] = target: Gal(a1-4)Gal(b1-4)GlcNAc(b1-3)Gal(b1-4)Glc
Method in brief: as §1

[17] = target: Gal(a1-4)GlcNAc
Method in brief: as §1

[18] = target: Gal(a1-6)Glc
Method in brief: as §1

[19] = target: Gal(b1-2)Gal
Method in brief: as §1

[20] = target: Gal(b1-3)Gal
Method in brief: as §1

[21] = target: Gal(b1-3)Gal(b1-4)GlcNAc
Method in brief: as §1

[22] = target: Gal(b1-3)GalNAc
Method in brief: as §1

[23] = target: Gal(b1-3)GalNAc(a1-3)[Fuc(a1-2)]Gal(b1-4)Glc
Method in brief: as §1

[24] = target: Gal(b1-3)GalNAc(a1-3)[Fuc(a1-2)]Gal(b1-4)GlcNAc
Method in brief: as §1

[25] = target: Gal(b1-3)GalNAc(b1-3)Gal
Method in brief: as §1

[26] = target: Gal(b1-3)GalNAc(b1-3)Gal(a1-4)Gal(b1-4)Glc
Method in brief: as §1

[27] = target: Gal(b1-3)GalNAc(b1-4)Gal(b1-4)Glc
Method in brief: as §1

[28] = target: Gal(b1-3)GalNAc(b1-4)[Neu5Ac(a2-3)]Gal(b1-4)Glc
Method in brief: as §1

[29] = target: Gal(b1-3)GlcNAc
Method in brief: as §1

[30] = target: Gal(b1-3)GlcNAc(a1-3)Gal(b1-4)GlcNAc
Method in brief: as §1

[31] = target: Gal(b1-3)GlcNAc(a1-6)Gal(b1-4)GlcNAc
Method in brief: as §1

[32] = target: Gal(b1-3)GlcNAc(b1-2)Man
Method in brief: as §1

[33] = target: Gal(b1-3)GlcNAc(b1-2)Man(a1-3)[Gal(b1-3)GlcNAc(b1-2)Man(a1-6)]Man(b1-4)GlcNAc(b1-4)GlcNAc
Method in brief: as §1

[34] = target: Gal(b1-3)GlcNAc(b1-2)Man(a1-3)[Gal(b1-3)GlcNAc(b1-2)Man(a1-6)]Man(b1-4)GlcNAc(b1-4)[Fuc(a1-6)]GlcNAc
Method in brief: as §1

[35] = target: Gal(b1-3)GlcNAc(b1-2)Man(a1-3)[GlcNAc(b1-4)][Gal(b1-3)GlcNAc(b1-2)Man(a1-6)]Man(b1-4)GlcNAc(b1-4)GlcNAc
Method in brief: as §1

[36] = target: Gal(b1-3)GlcNAc(b1-2)[Gal(b1-3)GlcNAc(b1-6)]Man(a1-6)[Gal(b1-3)GlcNAc(b1-2)Man(a1-3)]Man(b1-4)GlcNAc(b1-4)GlcNAc
Method in brief: as §1

[37] = target: Gal(b1-3)GlcNAc(b1-3)Gal(b1-3)GlcNAc
Method in brief: as §1

[38] = target: Gal(b1-3)GlcNAc(b1-3)Gal(b1-4)Glc
Method in brief: as §1

[39] = target: Gal(b1-3)GlcNAc(b1-3)Gal(b1-4)GlcNAc
Method in brief: as §1

[40] = target: Gal(b1-3)GlcNAc(b1-3)Gal(b1-4)GlcNAc(b1-2)Man(a1-3)[Gal(b1-3)GlcNAc(b1-3)Gal(b1-4)GlcNAc(b1-2)Man(a1-6)]Man(b1-4)GlcNAc(b1-4)GlcNAc
Method in brief: as §1

[41] = target: Gal(b1-3)GlcNAc(b1-3)Gal(b1-4)GlcNAc(b1-2)[Gal(b1-3)GlcNAc(b1-3)Gal(b1-4)GlcNAc(b1-6)]Man(a1-6)[Gal(b1-3)GlcNAc(b1-3)Gal(b1-4)GlcNAc(b1-2)Man(a1-3)]Man(b1-4)GlcNAc(b1-4)[Fuc(a1-6)]GlcNAc
Method in brief: as §1

[42] = target: Gal(b1-3)GlcNAc(b1-3)Gal(b1-4)GlcNAc(b1-3)Gal(b1-4)GlcNAc(b1-2)[Gal(b1-3)GlcNAc(b1-3)Gal(b1-4)GlcNAc(b1-3)Gal(b1-4)GlcNAc(b1-6)]Man(a1-6)[Gal(b1-3)GlcNAc(b1-3)Gal(b1-4)GlcNAc(b1-3)Gal(b1-4)GlcNAc(b1-2)Man(a1-3)]Man(b1-4)GlcNAc(b1-4)[Fuc(a1-6)]GlcNAc
Method in brief: as §1

[43] = target: Gal(b1-3)GlcNAc(b1-3)Gal(b1-4)GlcNAc(b1-6)[Gal(b1-3)GlcNAc(b1-3)]Gal(b1-4)Glc
Method in brief: as §1

[44] = target: Gal(b1-3)GlcNAc(b1-3)Gal(b1-4)[Fuc(a1-3)]GlcNAc
Method in brief: as §1

[45] = target: Gal(b1-3)GlcNAc(b1-3)Gal(b1-4)[Fuc(a1-3)]GlcNAc(b1-6)[Gal(b1-3)GlcNAc(b1-3)]Gal(b1-4)Glc
Method in brief: as §1

B1: HHA (Hippeastrum hybrid) (protein)
chain: MQQDCNLVLYDVDKPIWASNTGGLARDCHLNMQSDGNLVVYAPRNQVIWASNTQGENGNYVCILQKDRNVVIYGTARWATGTNIHGAGIVGVPGSAPQNTTAEMIKLVRKYLITK
glycan array binding signal (z-score) [1]: 0.654 | glycan array binding signal (z-score) [2]: -0.201 | glycan array binding signal (z-score) [3]: -0.171 | glycan array binding signal (z-score) [4]: -0.205 | glycan array binding signal (z-score) [5]: 1.42 | glycan array binding signal (z-score) [6]: -0.156 | glycan array binding signal (z-score) [7]: -0.209 | glycan array binding signal (z-score) [8]: -0.216 | glycan array binding signal (z-score) [9]: -0.182 | glycan array binding signal (z-score) [10]: 0.093 | glycan array binding signal (z-score) [11]: -0.172 | glycan array binding signal (z-score) [12]: 0.269 | glycan array binding signal (z-score) [13]: -0.192 | glycan array binding signal (z-score) [14]: -0.183 | glycan array binding signal (z-score) [15]: 0.121 | glycan array binding signal (z-score) [16]: -0.203 | glycan array binding signal (z-score) [17]: -0.153 | glycan array binding signal (z-score) [18]: -0.21 | glycan array binding signal (z-score) [19]: -0.209 | glycan array binding signal (z-score) [20]: -0.212 | glycan array binding signal (z-score) [21]: -0.195 | glycan array binding signal (z-score) [22]: 0.496 | glycan array binding signal (z-score) [23]: -0.206 | glycan array binding signal (z-score) [24]: -0.21 | glycan array binding signal (z-score) [25]: -0.198 | glycan array binding signal (z-score) [26]: -0.199 | glycan array binding signal (z-score) [27]: -0.207 | glycan array binding signal (z-score) [28]: -0.209 | glycan array binding signal (z-score) [29]: -0.205 | glycan array binding signal (z-score) [30]: -0.214 | glycan array binding signal (z-score) [31]: -0.207 | glycan array binding signal (z-score) [32]: -0.213 | glycan array binding signal (z-score) [33]: 0.434 | glycan array binding signal (z-score) [34]: -0.094 | glycan array binding signal (z-score) [35]: 0.4 | glycan array binding signal (z-score) [36]: 0.14 | glycan array binding signal (z-score) [37]: -0.206 | glycan array binding signal (z-score) [38]: -0.219 | glycan array binding signal (z-score) [39]: -0.208 | glycan array binding signal (z-score) [40]: 0.063 | glycan array binding signal (z-score) [41]: 1.54 | glycan array binding signal (z-score) [42]: 1.31 | glycan array binding signal (z-score) [43]: -0.212 | glycan array binding signal (z-score) [44]: -0.204 | glycan array binding signal (z-score) [45]: -0.202
